Data: PubChem BioAssay AID493208 (National Center for Advancing Translational Sciences (NCATS), 2011)
About 340 (0.77%) of roughly 44,000 compounds were called active. Inconclusive results (about 5%) are left out. Calls follow the shape of the dose curve; as a rule, active = well fitted inhibition curve with a large enough effect; inconclusive = small, poorly fitted or top-dose-only effect; inactive = flat fitted curve, though single readings scatter. This is one part of the list.

Assay: Acumen qHTS Assay for Inhibitors of the mTORC1 Signaling Pathway in MEF (Tsc2-/-, p53-/-) Cells: Sytravon;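 also: plate controls were DMSO for no effect and rapamycin for full effect; nearly all actives have a fitted effect of over 50% in size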
Conditions: phospho-rpS6 immunofluorescence/PI, 24 h; series mostly up to 38.3 µM; activity change, negative = inhibition: at the top concentration
In short: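 Tsc2-/-, p53-/- MEFs (empty-vector stable line) in DMEM + 10% FBS were treated with compounds 24 h at 37 degree Celsius, fixed, and immunostained for phospho-rpS6 (Alexa-488) with propidium iodide counterstain. Laser-scanning cytometry gave % positive cells, normalized against 7.5 nM rapamycin and DMSO.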

Activity change, negative = inhibition, inactive:
O=S(=O)(Nc1cccc(C(F)(F)F)c1)c1ccc(-c2cnc(C3CC3)o2)cc1 -15.4%, Cc1ccc(-n2nnc(-c3nc(-c4cccs4)no3)c2N)c(C)c1 -3.42%, CC(C)c1ccc(OCC(=O)Nc2c(C(=O)c3ccc(F)cc3)oc3ccccc23)cc1 1.24%, Cc1ccc(Nc2c(-c3ccsc3)nc3c(C)cccn23)cc1 -10.4%, COc1ccc(S(=O)(=O)NCc2cccn2Cc2cccc(C)c2)cc1 -0.522%, CCCCCSc1nc2sc3c(c2c(=O)n1-c1ccc(OC)cc1)CCN(C(C)=O)C3 -16.9%, COc1ccccc1NC(=O)CC(c1cc(OC)c(OC)c(OC)c1)N1Cc2ccccc2C1=O (stereo unspecified) 0.0282%, Cc1c(C)n(C)c2ccc(C(=O)NCc3cccc(F)c3)cc12 -10.8%, COc1cc2c(cc1NC(=O)COc1ccc(Cl)cc1Br)oc1ccccc12 -7.88%, CCOC(=O)CSc1nnc2n(-c3ccccc3)c(=O)c3c4c(sc3n12)CC(C(C)(C)C)CC4 (stereo unspecified) -0.795%, CCOc1cc2sc(N3CCC(C(=O)Nc4cc(C)cc(C)c4)CC3)nc2cc1Br -1.61%, Cc1cc(=O)c2cc(C(=O)Nc3ccccc3C)ccc2[nH]1 0.666%, COC(=O)c1cc2sc(Cl)cc2n1Cc1cc(C)ccc1C -3.01%, CCc1ccccc1NC(=O)Cn1c2ncccc2c(=O)n1-c1ccccc1 3.82%, COc1ccc(Cn2ccc3nc(C)c(C(=O)NCc4cccc(OC)c4)cc3c2=O)cc1 -0.0668%, Cc1ccc(-n2nc3c(=O)n(CC(=O)NCC(C)c4ccccc4)nc(C)c3c2C)cc1 (stereo unspecified) -8.53%, COC(=O)c1ccc(CSc2nnc3ccc4ccccc4n23)cc1 -4.14%, COc1cc(F)c(S(=O)(=O)Nc2c(C)n(C)n(-c3ccccc3)c2=O)cc1OC -10.2%, CCn1cc2c(n1)-c1c(oc(C(=O)Nc3cccc(C(F)(F)F)c3)c1C)CC2 -3.99%, COc1ccccc1Cn1cc(C(=O)c2ccc(C)cc2)c(=O)c2cc3c(cc21)OCCO3 -5.68%, O=C(CN1CCSc2ccccc21)N1CCN(c2ccc(F)cc2)CC1 -3.06%, CCCN(Cc1cccs1)C(=O)Nc1cc(OC)ccc1OC -2.28%, Cc1ccc(N(C)C(=O)c2cc(S(=O)(=O)N3CCOCC3)cn2C)cc1 2.84%, COc1ccc(CCNC(=O)CCCCn2c(=O)c3ccccc3n(Cc3ccccc3Cl)c2=O)cc1OC -6.52%, COc1ccccc1-c1noc(CCCC(=O)Nc2cc(C)ccc2C)n1 3.54%, COc1ccc(C(=O)Nc2ccc(C(=O)OCc3cc(=O)n4nc(C5CC5)sc4n3)cc2)cc1 0%, Cc1ccc(-n2nc3c(N4CCC(C(=O)NCc5ccccc5Cl)CC4)nnc(C)c3c2C)cc1 0.371%, CC(=O)c1ccc(NC(=O)CCOc2ccccc2)cc1 -5.46%, COc1ccc(OC)c(S(=O)(=O)NCCc2csc(-c3cccc(F)c3)n2)c1 -4.24%, CCOC(=O)c1c(C)[nH]c(C)c1S(=O)(=O)NCC(=O)N1CCN(c2ccccc2OC)CC1 -8.24%, CCN(CC)C(=O)Nc1ccc2c(c1)N(Cc1ccccc1)C(=O)c1ccccc1S2 0.257%, COc1cc(C(=O)NC(c2ccc(Cl)cc2)c2cc(Cl)c3cccnc3c2O)cc(OC)c1OC (stereo unspecified) -0.196%, CCc1cccc(C)c1NC(=O)CN1CCCN(Cc2ccccc2Cl)S1(=O)=O -3.62%, CCOc1ccccc1NC(=O)C(CC)n1c(C(=O)OC)cc2occc21 (stereo unspecified) -2.88%, COc1ccc(N(C(=O)/C=C\C(=O)Nc2ccc(C)cc2)C(C(=O)NCc2ccco2)c2ccc(C)cc2)cc1 (stereo unspecified) 6.66%, COc1ccc(Nc2oc(/C=C/c3cccc(OC)c3)nc2C#N)cc1 -25.2%, CCCn1c(=NC(=O)c2cc3ccccc3o2)c(C(=O)OCC)cc2c(=O)n3ccccc3nc21 -2.96%, O=C(Cn1ncc2ccsc2c1=O)N1CCN(c2ccccc2F)CC1 1.77%, CCCCN(CC)CCNC(=O)C1CCCN(S(=O)(=O)c2cccc3nsnc23)C1 (stereo unspecified) -2.1%, O=S(=O)(c1ccc(-n2cnnn2)cc1)N1CCN(c2cccc(Cl)c2)CC1 -5.85%, Cc1c(C(=O)N2CCCCCC2)c(S(=O)(=O)N(Cc2ccccc2)C(C)(C)C)c(C)n1C -1.32%, Cc1ccc(-n2c(=O)c3cccnc3n2CC(=O)Nc2cc(Cl)ccc2C)cc1 4.94%, O=c1cc(-c2ccccc2)n2c(SCc3c(F)cccc3Cl)nnc2[nH]1 -6.34%, Cc1ccc(NC(=O)C(=O)NCc2ccco2)cc1 9.61%, Cc1ccc(NC(=O)CN(C)S(=O)(=O)c2cnc[nH]2)cc1 -2.03%, COc1ccccc1OCC(=O)NCC(c1ccc(Cl)cc1)N1CCOCC1 (stereo unspecified) 1.74%, Cc1ccc(C)c(CN2C(=O)c3ccccc3S(=O)c3ccc(C(=O)N4CCN(c5cccc(Cl)c5)CC4)cc32)c1 (stereo unspecified) -1.37%, Cc1ccc(NC(=O)Cn2c(=O)n(CCCCC(=O)NCc3ccccc3Cl)c(=O)c3ccccc32)cc1 2.45%, COc1ccc(C(CC(=O)NCc2ccccc2Cl)N2Cc3ccccc3C2=O)cc1OC (stereo unspecified) -5.36%, CC(C)CC(=O)NC1(C(F)(F)F)C(=O)Nc2c1c(=O)[nH]c(=O)n2-c1ccccc1 (stereo unspecified) -13%, CCOc1ccccc1NC(=O)CN1C(=O)CC(c2ccc(OC)c(OC)c2)Sc2ccccc21 (stereo unspecified) 0.123%, Cc1ccc(-c2nnc(C3CCN(S(=O)(=O)c4ccc(C)c(C)c4)CC3)o2)cc1 -21.1%, Cn1c(-n2cccc2)c(-c2c(-c3ccccc3)[nH]c3c2c(=O)n(C)c(=O)n3C)c(=O)n(C)c1=O -0.701%, CCCCOC(=O)c1ccc(NC(=O)CSc2nc3c(c(=O)[nH]2)CCCC3)cc1 4.1%, Cc1ccccc1CN1C(=O)c2ccccc2Sc2ccc(C(=O)NC(C)c3ccccc3)cc21 (stereo unspecified) -6.49%, COc1ccc(NC(=O)CC2C(=O)N(c3ccc(F)cc3)C(=O)N2Cc2ccco2)cc1 (stereo unspecified) -6.84%, Cc1ccc(N2C(=O)CCSC23C(=O)N(Cc2ccccc2)c2ccccc23)cc1F (stereo unspecified) -14.4%, Cc1cc(C)cc(NS(=O)(=O)c2ccc3[nH]cc(C(=O)N(C)Cc4ccccc4)c(=O)c3c2)c1 -7.19%, O=C(NCc1ccc(F)cc1)c1cc2c(=O)n3ccccc3nc2s1 3.08%, O=C(NCc1ccccc1)c1nn(-c2ccccc2)nc1CO -1.1%, COc1ccc(OC)c(/C=C(/C#N)c2nc(-c3ccc(-c4ccccc4)cc3)cs2)c1 -6.41%
